In paper PMC4706423 one finds binding data, which are given here for one molecule.

What all share (assay): two-hybrid; bait (pDEST32) and prey (pDEST22) co-transformed into yeast strain AH109; growth on SD-Leu-Trp-His and SD-Leu-Trp-His with 5 mM 3-amino-1,2,4-triazole; three biological replicates
Experiment [1] deals with T1, AtCFL1 C50, C-terminal 50 amino acid residues of AtCFL1, GAL4 DNA binding domain fusion (Arabidopsis thaliana) (UniProt Q5HZ54).
T1 sequence: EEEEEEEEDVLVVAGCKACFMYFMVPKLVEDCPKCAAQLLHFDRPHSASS

The target of experiment [2] is T2, AtCFL1 C77, C-terminal 77 amino acid residues of AtCFL1, GAL4 DNA binding domain fusion (Arabidopsis thaliana) (UniProt Q5HZ54).
T2 sequence: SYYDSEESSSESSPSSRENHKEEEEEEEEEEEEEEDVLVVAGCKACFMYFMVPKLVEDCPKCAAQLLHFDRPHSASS

In experiment [3] the target is T3, AtCFL1 C98, C-terminal 98 amino acid residues of AtCFL1, GAL4 DNA binding domain fusion (Arabidopsis thaliana) (UniProt Q5HZ54).
T3 sequence: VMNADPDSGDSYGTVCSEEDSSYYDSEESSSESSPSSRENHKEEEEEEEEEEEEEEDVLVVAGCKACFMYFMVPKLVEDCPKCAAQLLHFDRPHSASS

Experiment [4] has as its target T4, AtCFL1 with C155 and C158 residues mutated (C155A C158A), GAL4 DNA binding domain fusion (Arabidopsis thaliana) (UniProt Q5HZ54).
T4 sequence: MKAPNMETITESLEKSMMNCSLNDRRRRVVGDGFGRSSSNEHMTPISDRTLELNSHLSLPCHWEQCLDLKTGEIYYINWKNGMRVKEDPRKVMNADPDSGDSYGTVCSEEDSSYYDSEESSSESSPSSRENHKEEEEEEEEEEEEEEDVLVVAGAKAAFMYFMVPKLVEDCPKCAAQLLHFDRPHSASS

The target of experiment [5] is T5, AtCFL1 with C155, C158, C171 and C174 residues mutated (C155A C158A C171A C174A), GAL4 DNA binding domain fusion (Arabidopsis thaliana) (UniProt Q5HZ54).
T5 sequence: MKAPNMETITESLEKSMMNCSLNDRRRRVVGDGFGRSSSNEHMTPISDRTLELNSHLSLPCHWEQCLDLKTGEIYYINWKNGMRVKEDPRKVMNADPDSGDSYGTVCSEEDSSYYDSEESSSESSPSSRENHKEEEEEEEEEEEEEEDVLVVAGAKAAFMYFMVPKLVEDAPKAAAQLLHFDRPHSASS

Experiment [6] has as its target T6, AtCFL1 with C171 and C174 residues mutated (C171A C174A), GAL4 DNA binding domain fusion (Arabidopsis thaliana) (UniProt Q5HZ54).
T6 sequence: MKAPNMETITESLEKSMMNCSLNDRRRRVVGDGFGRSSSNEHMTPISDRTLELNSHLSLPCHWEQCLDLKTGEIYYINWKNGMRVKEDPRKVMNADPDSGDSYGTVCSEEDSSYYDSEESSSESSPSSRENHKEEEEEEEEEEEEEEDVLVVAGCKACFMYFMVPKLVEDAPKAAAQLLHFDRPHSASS

The target in experiment [7] is T7, AtCFL1 ΔC20, AtCFL1 with the C-terminal 20 amino acid residues deleted, GAL4 DNA binding domain fusion (Arabidopsis thaliana) (UniProt Q5HZ54).
T7 sequence: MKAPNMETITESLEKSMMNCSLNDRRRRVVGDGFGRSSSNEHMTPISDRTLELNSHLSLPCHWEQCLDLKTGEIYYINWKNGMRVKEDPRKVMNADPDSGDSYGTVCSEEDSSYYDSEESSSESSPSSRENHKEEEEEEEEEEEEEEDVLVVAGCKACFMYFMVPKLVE

For experiment [8], the target named is T8, AtCFL1, full length, GAL4 DNA binding domain fusion (pDEST32-AtCFL1) (Arabidopsis thaliana) (UniProt Q5HZ54).
T8 sequence: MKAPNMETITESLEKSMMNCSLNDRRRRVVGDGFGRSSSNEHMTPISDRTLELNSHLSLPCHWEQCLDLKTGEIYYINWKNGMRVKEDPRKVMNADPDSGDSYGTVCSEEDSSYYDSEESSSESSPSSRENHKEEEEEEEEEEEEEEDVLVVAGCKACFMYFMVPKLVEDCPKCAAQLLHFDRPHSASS

For experiment [9], the target named is T9, AtCFL1C, C-terminal of AtCFL1 with 119 amino acid residues, GAL4 DNA binding domain fusion (Arabidopsis thaliana) (UniProt Q5HZ54).
T9 sequence: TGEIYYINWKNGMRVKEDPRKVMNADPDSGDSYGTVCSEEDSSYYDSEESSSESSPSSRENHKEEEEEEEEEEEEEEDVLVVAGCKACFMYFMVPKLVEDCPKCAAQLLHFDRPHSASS

Experiment [10] deals with T10, AtCFL1N, N-terminal of AtCFL1 with 70 amino acid residues, GAL4 DNA binding domain fusion (Arabidopsis thaliana) (UniProt Q5HZ54).
T10 sequence: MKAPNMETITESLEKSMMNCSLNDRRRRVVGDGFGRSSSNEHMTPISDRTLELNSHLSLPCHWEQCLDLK

Results are given in words; binding and its absence hold for the method and conditions named. Some results given as binding are weak or reduced against the parent protein; the word gives no strength. Where a sequence is shown, tags or fusion partners need not be part of it.

B1: HDG1, HD-ZIP IV transcription factor, two-hybrid prey (protein, UniProt Q9M2E8 1-808)
chain: MNFNGFLDDGAGASKLLSDAPYNNHFSFSAVDTMLGSAAIAPSQSLPFSSSGLSLGLQTNGEMSRNGEIMESNVSRKSSRGEDVESRSESDNAEAVSGDDLDTSDRPLKKKKRYHRHTPKQIQDLESVFKECAHPDEKQRLDLSRRLNLDPRQVKFWFQNRRTQMKTQIERHENALLRQENDKLRAENMSVREAMRNPMCGNCGGPAVIGEISMEEQHLRIENSRLKDELDRVCALTGKFLGRSNGSHHIPDSALVLGVGVGSGGCNVGGGFTLSSPLLPQASPRFEISNGTGSGLVATVNRQQPVSVSDFDQRSRYLDLALAAMDELVKMAQTREPLWVRSSDSGFEVLNQEEYDTSFSRCVGPKQDGFVSEASKEAGTVIINSLALVETLMDSERWAEMFPSMVSRTSTTEIISSGMGGRNGALHLMHAELQLLSPLVPVRQVSFLRFCKQHAEGVWAVVDVSIDSIREGSSSSCRRLPSGCLVQDMANGYSKVTWIEHTEYDENHIHRLYRPLLRCGLAFGAHRWMAALQRQCECLTILMSSTVSTSTNPSPINCNGRKSMLKLAKRMTDNFCGGVCASSLQKWSKLNVGNVDEDVRIMTRKSVNNPGEPPGIILNAATSVWMPVSPRRLFDFLGNERLRSEWDILSNGGPMKEMAHIAKGHDRSNSVSLLRASAINANQSSMLILQETSIDAAGAVVVYAPVDIPAMQAVMNGGDSAYVALLPSGFAILPNGQAGTQRCAAEERNSIGNGGCMEEGGSLLTVAFQILVNSLPTAKLTVESVETVNNLISCTVQKIKAALHCDST
Regarding B1, the binding result in [1] is listed as “binds”; in experiment [2], “binds”; in experiment [3] it was “binds”; in experiment [4], “no binding”; in [5], “no binding”; in [6], “no binding”. Besides, the binding entry is “no binding” in [7], “binds” in experiment [8], “binds” in experiment [9] and “no binding” in experiment [10].
